Target: the molecule itself
Assay: FRET or BRET

B1: prostacyclin receptor variant IP^R212C, fused to renilla luciferase (IP^R212CrLuc) or to yellow fluorescent protein (IP^R212CYFP) (receptor)
chain: not shown
Protein B1 has a BRET50 of 1.13 YFP fold over basal.

— paper PMC2924460 (Arteriosclerosis, thrombosis, and vascular biology, 2010)
